Measurements taken from PubChem BioAssay AID485294 (National Center for Advancing Translational Sciences (NCATS), 2010).
Out of some 370,000 compounds screened, about 150 (0.041%) were called active. The inconclusive results got no clear call from the source; some entries with a clear call stand among them for comparison. The call rests on the fitted dose curve; in most records, active means well fitted inhibition curve with a large enough effect; inconclusive means small, poorly fitted or top-dose-only effect; inactive means flat fitted curve, though single readings scatter. Potencies of inconclusive entries are left out as doubtful fits.

Each compound was assayed against Beta-lactamase (Escherichia coli (strain K12)) (UniProt P00811) (assay: qHTS Inhibitors of AmpC Beta-Lactamase (assay with detergent)). Details: AmpC hydrolysis of nitrocefin, absorbance 480 nm, 0.01% Triton; series mostly up to 114 µM.
UniProt P00811, sequence (P00811 whole entry, looked up): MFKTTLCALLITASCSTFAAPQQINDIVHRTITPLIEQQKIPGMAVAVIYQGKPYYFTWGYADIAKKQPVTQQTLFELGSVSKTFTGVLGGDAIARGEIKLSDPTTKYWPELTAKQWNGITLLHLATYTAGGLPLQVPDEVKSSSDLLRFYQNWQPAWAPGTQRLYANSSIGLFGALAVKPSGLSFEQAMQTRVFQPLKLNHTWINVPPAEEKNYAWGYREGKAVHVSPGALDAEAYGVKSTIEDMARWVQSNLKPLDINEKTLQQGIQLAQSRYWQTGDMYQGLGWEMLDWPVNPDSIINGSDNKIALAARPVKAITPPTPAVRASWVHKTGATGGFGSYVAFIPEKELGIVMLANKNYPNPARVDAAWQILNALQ
How it was run: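 AmpC (5.3 nM in the dispensed reagent) in 20 mM phosphate pH 7.0 with 0.01% (detergent screen) or 0.0001% Triton X-100 was preincubated with compounds for 15 min at room temperature. Nitrocefin was then added from an 800 uM solution, and hydrolysis was followed at 480 nm.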
Further: nearly all actives have a fitted effect of over 25% in size.
Potency means the concentration at half of the fitted maximal effect; tags describe the fitted curve by direction and shape.

Row | SMILES | Potency
1 | CCCCc1cc2c(c(NC(C)=O)n1)c(=O)oc1ccccc12 | inconclusive [inhibitor, full curve]
2 | O=C(/C=C/c1ccco1)Nc1nc(-c2ccc(F)c(F)c2)cs1 | inactive
3 | COc1ccc(OC)c(S(=O)(=O)N2CCC(C(=O)Nc3cccc(C)c3C)CC2)c1 | inactive
4 | O=C(NCC1CCCCC1)c1cccc([N+](=O)[O-])c1 | inactive
5 | Cc1ccc(CCNC(=O)C2CCC(=O)N(CC3CCCCC3)C2)cc1 (stereo not drawn) | inactive
6 | COc1ccc2cc3cc(C(=O)N4CCN(Cc5ccc6c(c5)OCO6)CC4)oc3nc2c1 | inactive
7 | O=C(NCC1COc2ccccc2O1)c1cc2ccccc2o1 (stereo not drawn) | inactive
8 | O=C(CN1C(=O)COc2ccc(S(=O)(=O)N3CCCC3)cc21)N1CCN(c2cccc(C(F)(F)F)c2)CC1 | inconclusive [inhibitor, partial curve, poor fit]
9 | CC1CC(C)CN(C(=O)c2ccc3c(c2)N(Cc2ccccc2)CCS3)C1 (stereo not drawn) | inactive
10 | CC(NC(=O)C1C2C=CC(C2)C1C(=O)O)c1ccccc1 (stereo not drawn) | inconclusive [inhibitor, full curve, poor fit]
11 | CCc1ccc(NC(=O)C(C)n2nc(C)c([N+](=O)[O-])c2C)cc1 (stereo not drawn) | inconclusive [inhibitor, full curve, poor fit]
12 | CCN1CCN(C(=O)CN(CC)S(=O)(=O)c2ccc3ccccc3c2)CC1 | inconclusive [inhibitor, partial curve, poor fit]
13 | CCOCCCNC(=O)Cn1cc2c(n1)CCCCC2 | inconclusive [inhibitor, full curve]
14 | Cc1ccc(C)c(Oc2cc(NN3CCCCC3)c([N+](=O)[O-])cc2[N+](=O)[O-])c1 | inconclusive [inhibitor, partial curve]
15 | CC(=O)c1c(C)[nH]c(C(=O)OCC(=O)Nc2ccc(Cl)cc2[N+](=O)[O-])c1C | inactive
16 | O=C(c1cc(F)ccc1F)N1CCC(N2CCC(C(=O)N3CCCC3)CC2)CC1 | inactive
17 | COc1cc(C(=O)Nc2cccc(-n3cnnn3)c2)cc(Cl)c1OC | inconclusive [inhibitor, single point]
18 | CCC(CC)NCc1ccc(OC)cc1OC | inconclusive [inhibitor, full curve, poor fit]
19 | Cn1c(CCNC(=O)c2cccs2)nnc1SCC(=O)N1CCN(c2ccccc2)CC1 | inconclusive [inhibitor, full curve, poor fit]
20 | CC(C)[C@H](NC(=O)c1ccco1)C(=O)OCC(=O)c1ccc2c(c1)NC(=O)CO2 | inactive
21 | CCN(CC)c1nc2c(S(=O)(=O)c3cccc(Cl)c3)nnn2c2ccsc12 | inactive
22 | CCc1nnc(NC(=O)CSc2nc3cc(OC)ccc3cc2C)s1 | inconclusive [inhibitor, single point]
23 | COc1ccc(-c2nc(CS(=O)CC(=O)NC3CCCCCC3)c(C)o2)cc1 (stereo not drawn) | inconclusive [inhibitor, single point]

Row | SMILES | Potency
24 | CCN1CCN(C(=O)CCCn2c(C)c3cnn(-c4ccccc4)c(=O)c3c2C)CC1 | inconclusive [inhibitor, partial curve, poor fit]
25 | CCn1nnnc1-c1ccc(OC)c(S(=O)(=O)Nc2ccc(C(=O)OC)cc2)c1 | inconclusive [inhibitor, full curve]
26 | CC1=C(C(=O)Nc2ccccc2)C(c2ccncc2)n2nc(SCc3ccccc3F)nc2N1 (stereo not drawn) | inactive
27 | CCOC(=O)C1=C(O)/C(=C\c2ccc(CNC(=O)C(=O)Nc3ccccc3)o2)N=C1C | inactive
28 | Cc1[nH]nc2c1C(c1ccc(-c3ccccc3C#N)o1)C(C#N)=C(N)O2 (stereo not drawn) | inconclusive [inhibitor, partial curve]
29 | CCCCCCCCCC[N+](C)(C)CC/C=C1/c2ccccc2Sc2ccc(Cl)cc21 | inactive
30 | Cn1c(Cn2c(=O)sc3ccccc32)nnc1SCC(=O)NC1CCCCC1 | inconclusive [inhibitor, partial curve, poor fit]
31 | COc1ccccc1CNC(=O)COC(=O)C1=COCCO1 | inactive
32 | O=C(Nc1ccc(Cc2ccc(NC(=O)C3CC3)cc2)cc1)C1CC1 | inconclusive [inhibitor, full curve, poor fit]
33 | O=C(COc1ccccc1)Nc1cc2c3c(c1)CC(=O)N3CCC2 | inconclusive [inhibitor, single point]
34 | Clc1ccc(SCc2cn3ccccc3n2)cc1 | inconclusive [inhibitor, full curve, poor fit]
35 | CC(C)CC(=O)N1CCC(N2CCN(c3ccccc3)CC2)CC1 | inconclusive [inhibitor, full curve, poor fit]
36 | CCC1C=CC=CC[C@H](C)[C@@H](O)[C@](C)(O)C(=O)[C@@H](C)[C@H](O)[C@@H](C)C(=O)[C@H](C)[C@@H](O)[C@H](C)C=CC(=O)OC2[C@@H](C)C(CC1)OC1(CC[C@@H](C)C(C[C@H](C)O)O1)[C@@H]2C (stereo partly drawn) | inconclusive [inhibitor, full curve, poor fit]
37 | Cc1ccc(C)c(OCC(O)CN2C(C)CCCC2C)c1 (stereo not drawn) | inconclusive [inhibitor, full curve]
38 | O=C(Cc1ccc2c(c1)OCCO2)N/N=C/c1ccco1 | inconclusive [inhibitor, full curve, poor fit]
39 | O=S(=O)(NCc1cc(-c2ccccc2Cl)no1)c1ccc(Cl)cc1 | inactive
40 | COc1ccc(C(=O)N2CCN(C(=O)Cc3ccccc3)CC2)cc1OC | inconclusive [inhibitor, single point]
41 | O=S(=O)(c1ccccc1)c1nc(-c2cccs2)oc1NCCCn1ccnc1 | inconclusive [inhibitor, partial curve]
42 | COc1ccc(C(=O)c2c(N)sc3c2CCN(C(=O)OC(C)(C)C)C3)cc1 | inconclusive [inhibitor, full curve]
43 | COc1ccc(NC(=S)N2CCNC(=O)C2CC(=O)Nc2cccc(Cl)c2C)cc1 (stereo not drawn) | inactive
44 | COc1ccc(NC(=O)COC(=O)C2CCN(S(=O)(=O)c3cccs3)CC2)cc1 | inconclusive [inhibitor, full curve, poor fit]
45 | CCOC(=O)N1CCN(CC(O)COc2ccccc2C(C)(C)C)CC1 (stereo not drawn) | inconclusive [inhibitor, full curve, poor fit]
46 | COCCn1c(=NC(C)=O)sc2cc([N+](=O)[O-])ccc21 | inconclusive [inhibitor, partial curve, poor fit]

Row | SMILES | Potency
47 | O=C(N/N=C/c1ccccc1F)c1csc2c1CCCC2 | inactive
48 | O=C(CSc1nnc(-c2cccc(S(=O)(=O)N3CCCCC3)c2)o1)NCCC1=CCCCC1 | inconclusive [inhibitor, single point]
49 | CCNC(=O)Nc1cc(S(=O)(=O)Nc2ccc(OC)cc2)ccc1N1CCOCC1 | inactive
50 | COc1ccccc1CNC(=O)C1CCN(S(=O)(=O)c2ccc3c(ccn3C)c2)CC1 | inactive
51 | CC(=O)NS(=O)(=O)c1ccc(NC(=O)/C=C/c2ccco2)cc1 | inactive
52 | Cc1ccc(Nc2nc(N)nc(CN3CCN(c4ccccc4)CC3)n2)cc1Cl | inconclusive [inhibitor, full curve, poor fit]
53 | CCc1ccc2[nH]c(C(=O)Nc3ccc(Br)c(C)n3)cc2c1 | inactive
54 | COc1ccc(NC(=O)CSc2nc(N)cc(N)n2)cc1S(=O)(=O)N1CCCCC1 | inactive
55 | Cc1ccc(CN(C)S(=O)(=O)c2c(C)noc2/C=C/N(C)C)cc1 | inconclusive [inhibitor, partial curve, poor fit]
56 | Cc1ccc(OCc2ccc(-c3ccccc3)cc2)c([N+](=O)[O-])n1 | inconclusive [inhibitor, full curve, poor fit]
57 | Cc1oc(-c2cccs2)nc1CS(=O)CC(=O)NC1CCCCCC1 (stereo not drawn) | inconclusive [inhibitor, partial curve]
58 | CC(NC(=O)c1cc(F)c(F)cc1Cl)C1CC2CCC1C2 (stereo not drawn) | inconclusive [inhibitor, full curve, poor fit]
59 | Cc1onc(-c2c(Cl)cccc2Cl)c1C(=O)NCc1ccc(S(N)(=O)=O)cc1 | inconclusive [inhibitor, partial curve, poor fit]
60 | Cc1cc(NS(=O)(=O)c2ccc(NC(=O)COc3ccc(Cl)cc3)cc2)no1 | inconclusive [inhibitor, full curve, poor fit]
61 | CCOC(=O)c1cc2c(ccn2C)n1CC(=O)N1C(C)CCCC1C (stereo not drawn) | inactive
62 | S=C(Nc1cccc(Cl)c1Cl)Nn1cnnc1 | inactive
63 | Cc1ccc(S(=O)(=O)N2CCCC(C(=O)NNCC(=O)Nc3cc(F)ccc3F)C2)cc1 (stereo not drawn) | inconclusive [inhibitor, partial curve, poor fit]
64 | O=C1CSC(=NC(=O)c2ccccc2)N1 | inconclusive [inhibitor, full curve, poor fit]
65 | COc1ccccc1Nc1nc(NCCO)c2ccccc2n1 | inactive
66 | CC12CN3CC(C)(CN(C1)C3c1ccccc1Cl)C2O (stereo not drawn) | inconclusive [inhibitor, single point]
67 | Nc1c2c(nc3sc4c(c13)CCCC4)CCCCCC2 | inconclusive [inhibitor, full curve]
68 | COc1ccc(/C=N/NC(=S)Nc2ccccc2)cc1COc1cccc(C)c1C | inactive
